The IC50 comes from the fitted curve, where viability falls to half of the control; a limit (>, <) means that the fit lies beyond the doses tested. AUC sums up the same curve from the lowest dose to the 256-fold higher top dose; it is 1 without any effect and falls as sensitivity rises. For part of these data: Any top dose called inferred is not printed in the source and was worked back from the curve model. For part of these data: Drugs with an entry number were screened twice under separate entries, and the two screens often disagree.
Key:
Test in all cases: Viability of human cancer cell lines after 72 h of drug (GDSC screen)
SB 216763 = compound: Cn1cc(C2=C(c3ccc(Cl)cc3Cl)C(=O)NC2=O)c2ccccc21 [SB 216763]; settings: top dose 10 µM; top dose inferred
Procedure: (§1)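 Human cancer cell lines in 384-well plates, medium with 10% serum, drug for 72 h over a 256-fold dose range (nine 2-fold or five 4-fold steps up to the top dose). Adherent lines were fixed and stained with the nucleic acid dye Syto60, suspension lines read with resazurin; signal relative to control wells, capped at 0 and 100%. One two-parameter sigmoid per drug and line, fitted in a mixed model over all curves with the slope shared within a line.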

AR-42 = compound: CC(C)[C@H](C(=O)Nc1ccc(C(=O)NO)cc1)c1ccccc1 [AR-42]; settings: top dose 5.12 µM; top dose inferred
Procedure: as §1

Pazopanib = compound: Cc1ccc(Nc2nccc(N(C)c3ccc4c(C)n(C)nc4c3)n2)cc1S(N)(=O)=O [Pazopanib]; settings: top dose 8 µM
Procedure: as §1

CEP-701 = compound: C[C@]12O[C@H](C[C@]1(O)CO)n1c3ccccc3c3c4c(c5c6ccccc6n2c5c31)CNC4=O [CEP-701]; settings: top dose 2 µM; top dose inferred
Procedure: as §1

Sunitinib = compound: CCN(CC)CCNC(=O)c1c(C)[nH]c(/C=C2\C(=O)Nc3ccc(F)cc32)c1C [Sunitinib]; settings: top dose 8 µM
Procedure: as §1

GDC0941 = compound: CS(=O)(=O)N1CCN(Cc2cc3nc(-c4cccc5[nH]ncc45)nc(N4CCOCC4)c3s2)CC1 [GDC0941]; settings: top dose 4 µM; screen: GDSC drug entry 1527; top dose inferred
Procedure: as §1

MG-132 = compound: CC(C)C[C@@H](C=O)NC(=O)[C@H](CC(C)C)NC(=O)[C@H](CC(C)C)NC(=O)OCc1ccccc1 [MG-132]; settings: top dose 1 µM
Procedure: as §1

Cell Line	AUC (SB 216763)	IC50 (SB 216763) [nM]	AUC (AR-42)	IC50 (AR-42) [nM]	AUC (Pazopanib)	IC50 (Pazopanib) [nM]	AUC (CEP-701)	IC50 (CEP-701) [nM]	AUC (Sunitinib)	IC50 (Sunitinib) [nM]	AUC (GDC0941)	IC50 (GDC0941) [nM]	AUC (MG-132)	IC50 (MG-132) [nM]
KARPAS-45 (lymphoblastic leukaemia, suspension)	0.979	> 10000	0.177	43.1	0.919	> 8000	0.413	75.4	0.776	2670	0.889	3240	0.732	250
KARPAS-299 (anaplastic large cell lymphoma, suspension)	0.992	> 10000	0.426	208	0.966	> 8000	0.613	241	0.747	2190	0.959	> 4000	0.876	710
KARPAS-422 (B-cell lymphoma, suspension)	0.986	> 10000	0.524	372	0.973	> 8000	0.713	494	0.829	4860	0.891	> 4000	0.731	282
KCL-22 (chronic myeloid leukaemia, suspension)	0.991	> 10000	0.333	120	0.98	> 8000	0.767	630	0.911	> 8000	0.823	1880	0.694	197
KGN (ovary, adherent)	0.97	> 10000	0.462	247	0.773	3780	0.507	131	0.722	2470	0.726	1280	0.811	675
KP-N-YN (neuroblastoma, adherent)	0.987	> 10000	0.383	147	0.955	> 8000	0.836	1510	0.9	> 8000	0.957	> 4000	0.893	> 1000
KS-1 (glioma, adherent)	0.947	> 10000	0.663	1020	0.842	7770	0.639	333	0.68	1820	0.721	1250	0.509	66.4
KU812 (chronic myeloid leukaemia, suspension)	0.988	> 10000	0.101	< 20	0.819	4060	0.611	244	0.819	4050	0.951	> 4000	0.764	333
L-428 (Hodgkin lymphoma, suspension)	0.993	> 10000	0.988	> 5120	0.987	> 8000	0.821	983	0.92	> 8000	0.974	> 4000	0.854	644
L-1236 (Hodgkin lymphoma, suspension)	0.989	> 10000	0.38	158	0.979	> 8000	0.372	59	0.817	3600	0.795	1540	0.742	268
LAMA-84 (chronic myeloid leukaemia, suspension)	0.968	> 10000	0.425	199	0.883	> 8000	0.444	87.6	0.757	2790	0.973	> 4000	0.708	244
LB1047-RCC (kidney, adherent)	0.976	> 10000	0.49	300	0.739	2650	0.457	93.8	0.625	1160	0.638	634	0.882	> 1000
LS-123 (large intestine, adherent)	0.946	> 10000	0.611	716	0.973	> 8000	0.777	1080	0.86	> 8000	0.793	2540	0.854	> 1000
LS-1034 (large intestine, adherent)	0.964	> 10000	0.551	447	0.985	> 8000	0.984	> 2000	0.967	> 8000	0.812	2430	0.928	> 1000
LU-165 (small cell lung carcinoma, suspension)	0.988	> 10000	0.484	288	0.958	> 8000	0.987	> 2000	0.98	> 8000	0.863	> 4000	0.925	> 1000
MC-CAR (haematopoietic neoplasm, suspension)	0.989	> 10000	0.334	117	0.96	> 8000	0.499	124	0.904	> 8000	0.859	2760	0.937	> 1000
MEG-01 (chronic myeloid leukaemia, suspension)	0.966	> 10000	0.529	382	0.914	> 8000	0.511	134	0.721	2020	0.951	> 4000	0.778	381
MOLT-4 (lymphoblastic leukaemia, suspension)	0.977	> 10000	0.332	121	0.99	> 8000	0.403	71.6	0.818	3470	0.338	97.6	0.746	267
